We go through 109 molecules from PubChem BioAssay AID488969 (Vanderbilt High Throughput Screening Facility, 2010).

In all, about 110,000 compounds were measured (“z-score”: median about -0.1, highest 2% from about 2 on). Some of the results follow. The source made the active and inactive calls.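 Rule for the calls: active = z-score in the third read window above 3 or below -3; inactive = the rest.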

The target in this experiment is Metabotropic glutamate receptor 8 (Rattus norvegicus) (UniProt P70579). The experiment is described as follows: mGluR8 Gi/Go-coupled signaling modulation – cell-based, rat, thallium flux, HTS, primary screen (AID 488969). Conditions: HEK293 rat mGluR8, GIRK (G protein-gated inwardly rectifying potassium channel) thallium flux, FluoZin2; at 10 µM; stronger effect = higher value; submaximal glutamate (EC20) added with thallium.
Sequence of UniProt P70579 (P70579 whole entry, looked up): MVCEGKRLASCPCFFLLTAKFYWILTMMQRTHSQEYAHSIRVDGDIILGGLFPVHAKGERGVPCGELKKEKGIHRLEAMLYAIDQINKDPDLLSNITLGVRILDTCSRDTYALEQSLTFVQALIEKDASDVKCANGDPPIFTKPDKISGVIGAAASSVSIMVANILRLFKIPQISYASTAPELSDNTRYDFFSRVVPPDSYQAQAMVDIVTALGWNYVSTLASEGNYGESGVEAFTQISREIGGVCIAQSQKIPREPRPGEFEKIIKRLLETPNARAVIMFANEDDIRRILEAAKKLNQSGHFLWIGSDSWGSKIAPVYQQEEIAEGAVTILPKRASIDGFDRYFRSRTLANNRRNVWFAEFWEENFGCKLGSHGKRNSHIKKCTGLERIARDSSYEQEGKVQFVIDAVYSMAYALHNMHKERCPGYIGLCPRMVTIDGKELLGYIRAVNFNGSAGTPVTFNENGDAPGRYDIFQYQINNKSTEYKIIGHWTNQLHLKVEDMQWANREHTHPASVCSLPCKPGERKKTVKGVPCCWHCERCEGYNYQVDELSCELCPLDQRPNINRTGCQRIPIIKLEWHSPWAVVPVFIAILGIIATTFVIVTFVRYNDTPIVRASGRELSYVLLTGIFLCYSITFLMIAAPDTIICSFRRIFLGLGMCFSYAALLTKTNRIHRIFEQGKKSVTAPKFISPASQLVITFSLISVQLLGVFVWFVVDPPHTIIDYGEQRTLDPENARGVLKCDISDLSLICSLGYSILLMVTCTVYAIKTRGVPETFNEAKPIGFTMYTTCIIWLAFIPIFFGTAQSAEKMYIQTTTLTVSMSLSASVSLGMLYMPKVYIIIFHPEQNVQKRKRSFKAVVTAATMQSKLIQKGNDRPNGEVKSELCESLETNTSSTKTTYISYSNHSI
In the case of `Cc1cc(NS(=O)(=O)c2ccc(NC(=O)Nc3ccc4c(c3)OCO4)cc2)no1`, the z-score is 0.0589.
`CCn1c(NN)nc2sc3c(c2c1=O)CCC3` came in with a z-score of 1.56.
On to `O=C(Nc1cc2c3c(c1)C1CCCC1CN3CC1CCCC21)c1ccc([N+](=O)[O-])cc1` (centres undefined), for which the z-score was 0.0676.
With `O=C(CN(Cc1ccccc1)C(=O)c1cc2c(s1)CCC2)NCc1cccs1` the figure was -0.121.
With `CC/C(=N/NC(=O)c1ccc(Br)cc1)c1ccc(OCCN2CCOCC2)cc1` the figure was 0.509; with `C=CCn1c2ccccc2c2nnc(SC(CC)C(=O)Nc3sc4c(c3C#N)CCCC4)nc21` (centres undefined), -0.689; with `O=C(CN1CCCCCCC1)N/N=C/c1ccccc1F`, -0.0187.
With `O=C(O)C1CC(O)CN1C(=O)c1ccco1` (centres undefined) the figure was -0.286; with `Cc1ccccc1CCN(C(=O)CN1C(=O)c2ccccc2S1(=O)=O)C(C(=O)NCC1CCCO1)c1ccncc1` (centres undefined), -0.37; with `CN(C(=O)c1ccco1)c1nc2c(s1)CCCC2`, -0.447.
Consider `O=C(COc1ccccc1Cl)N1CCN(c2ccc([N+](=O)[O-])c(N3CCCCC3)c2)CC1`, for which the z-score was -1.03.
For `O=c1c2nnn(Cc3ccc(Cl)cc3)c2ncn1Cc1ccc(F)cc1`, the z-score was -0.115.
With `COC(=O)CC(NC(=O)c1ccco1)c1ccc(C(C)C)cc1` (centres undefined) the figure was 0.0776.
`COC(=O)CCc1c(C)nc(N)[nH]c1=O` returned a z-score of 0.278.
`CC(=O)Nc1c(C(=O)N2CCOCC2)sc2nc3c(cc12)COC(C)(C)C3` gave a z-score of 0.0685.
With `CCOC(=O)Cn1cc(C(=O)c2cccs2)c2ccccc21` the figure was -0.568; with `COC(=O)c1c(C(=O)OC)c(-c2ccccc2)n2c1CCC2`, -0.151.
With `COCCSc1ccccc1C(=O)Nc1cc(C)on1`, the z-score is -0.199.
Consider `Cc1cc([N+](=O)[O-])ccc1-c1ccc(C2Nc3ccccc3C(=O)N2O)o1` (centres undefined), for which the z-score was active: 3.53.
As for `Cc1ccc2cc3cc(C(=O)N4CC(C)CC(C)C4)oc3nc2c1` (centres undefined), the z-score stood at 0.501.
`Cc1ccc(C)c(NC(=O)CS(=O)(=O)c2c[nH]c3ccccc23)c1` came in with a z-score of 0.438.
In the case of `CC1CCN(C(=O)CSc2nnc(CNC(=O)COc3ccc(Cl)cc3)o2)CC1`, the z-score was -0.0799.
Turning to `O=C(COc1ccc(Cl)cc1Br)NC(=O)NCc1ccccc1`, the z-score was -0.086.
With `COc1ccccc1N1CCN(CCCNC(=O)Nc2ccccc2C)CC1`, the z-score is -0.626.
With `Cc1ccc2c(c1)C(N1CCCC1=O)CC(c1ccco1)N2` (centres undefined) the figure was 0.098; with `CCOC(=O)c1ccc(N2C(=O)c3n[nH]c(C)c3C2c2ccccc2)cc1` (centres undefined), -0.773.
As to `Nc1c(Cl)cc(Cl)cc1C(=O)OCC(=O)NC1CC1`, the z-score is -0.299.
For `CCOC(=O)c1c(C)[nH]c(C)c1C(=O)COC(=O)c1cccc(S(=O)(=O)N(CC)CC)c1`, the z-score is -0.349.
Take `CC1CCCCC1NC(=O)C1CCN(S(=O)(=O)c2ccc(-n3cnnn3)cc2)CC1` (centres undefined): the z-score is -0.507.
With `CCOc1cc(C2Nc3ccccc3C(=O)N2c2ccccc2OC)ccc1O` (centres undefined) the figure was 0.837.
With `C=C(C)C1CC=C(C)/C(=N/NC(=O)c2cccs2)C1` (centres undefined) the figure was -0.0743; with `COc1ccc2c(c1)[nH]c1c(=O)n(CCCN3CCOCC3)cnc12`, -0.031.
In the case of `CC(NC(=O)C12CC3CC(CC(C3)C1)C2)C(=O)N/N=C/C1=C(N2CCOCC2)C(=C\c2cccc([N+](=O)[O-])c2)/CC1` (centres undefined), the z-score is -0.208.
Molecule `O=C(N/N=C/c1cccc([N+](=O)[O-])c1)c1ccc2c(c1)OCCO2` came in with a z-score of 0.192.
As for `COc1ccc(C(CNC(=O)COc2ccccc2C#N)N2CCOCC2)cc1` (centres undefined), the z-score came out at 0.00444.
With `COc1ccc(NC(=O)c2ccco2)cc1NC(=O)c1ccc(C)cc1` the figure was -0.304; with `CCn1c(NCc2ccccc2Cl)nc2ccccc21`, -0.202; with `COc1ccc(OC)c(C(=O)CSc2nc3cccnc3n2C)c1`, 0.718.
With `COC(=O)c1cc(NC(=O)c2ccc(-c3ccccc3)cc2)ccc1Cl` the figure was -1.57; with `CCC(C)NC(=O)C1CCCCN1S(=O)(=O)c1ccc(F)cc1` (centres undefined), -0.179.
With `CN(C)C(=O)c1noc2cc([N+](=O)[O-])ccc12` the figure was 0.192; with `CCOC(=O)c1cnc2c(C(=O)OC)cccc2c1NCc1ccco1`, -0.328.
Consider `CS(=O)(=O)Nc1ccc(C(=O)NCc2ccco2)cc1`, for which the z-score is 1.02.
With `O=C(COc1ccc([N+](=O)[O-])cc1)NCCC1=CCCCC1`, the z-score was -0.0621.
With `Cc1cccc(OCc2nc(C#N)c(NCc3ccc4c(c3)OCO4)o2)c1` the figure was 1.74.
Turning to `Cc1cc2oc(C(=O)NC3CCS(=O)(=O)C3)c(C)c2cc1C` (centres undefined), the z-score is -0.187.
Take `CCN(CC)CCn1c2ccccc2c2cnc(N=CN(C)C)c(C#N)c21`: the z-score amounted to 0.93.
As to `COC(=O)c1ccc(/C=N\N2CCN(Cc3ccc(C)cc3)CC2)cc1`, the z-score is -0.269.
As for `Cc1cc(C(=O)NCc2ccc(S(N)(=O)=O)cc2)ccc1[N+](=O)[O-]`, the z-score was 0.205.
With `Cc1nc(-n2nnc3cc(C)c(C)cc32)c2c3c(sc2n1)CCCC3` the figure was -0.163; with `Cc1onc(-c2ccccc2Cl)c1-c1nc(-c2ccncc2)no1`, -0.0851; with `O=C(NC1CCN(Cc2ccccc2)CC1)C1CCCN(S(=O)(=O)c2cccc3nonc23)C1` (centres undefined), 0.117.
With `O=C(CCN1CCN(c2ccccc2)CC1)Nc1nccs1` the figure was 0.002; with `Cc1nc2ccc(S(=O)(=O)NCC(=O)O)cc2s1`, 0.425.
With `Cc1sc2ncnc(SCC(=O)N3CCCC3=O)c2c1C` the figure was 2.71.
Turning to `O=Cc1cccc(OC(=O)c2ccc(Cl)cc2Cl)c1`, the z-score was -0.0993.
With `CCOc1ccc(C(=O)NC(=S)Nc2ccc(N3CCOCC3)c(Cl)c2)cc1[N+](=O)[O-]` the figure was 1.52; with `Cc1ccccc1C(=O)NNC(=O)Cc1cccc2ccccc12`, -0.273.
Take `O=C(Nc1ccccn1)c1cc(-c2cccnc2)nc2ccc(Br)cc12`: the z-score is -0.0675.
With `COc1ccc(-n2ccc(-c3nn(-c4cccc(C(F)(F)F)c4)ccc3=O)n2)cc1` the figure was -0.749; with `Cc1nc(NS(=O)(=O)c2ccccc2C)c2c3c(sc2n1)CCC3`, -0.235.
As for `COc1ccc(C(=O)NCc2nnc(SCC(=O)Nc3nc4ccccc4s3)o2)cc1OC`, the z-score was -0.301.
For `NC(=O)C1(N2CCCCC2)CCN(S(=O)(=O)c2cc(Cl)ccc2Cl)CC1`, the z-score was -0.254.
With `O=C(COC(=O)CN1C(=O)C2CCCCC2C1=O)Nc1ccc(S(=O)(=O)N2CCOCC2)cc1` (centres undefined) the figure was -0.0161.
With `CC[n+]1c(/C=C/C=C/N(C(C)=O)c2ccccc2)sc2cc(OC)ccc21` the figure was -0.183.
With `CCOc1ccc(OCC)c(NC(=O)CC2Oc3ccccc3NC2=O)c1` (centres undefined) the figure was 0.102.
Molecule `FC(F)Sc1ccc(N=C2NN=C(c3ccc4c(c3)OCCO4)CS2)cc1` yielded a z-score of 0.174.
`CCOc1ccc(N2C(=O)CC(Sc3nc(C)cc(C)c3C#N)C2=O)cc1` (centres undefined) displayed a z-score of 0.15.
On to `O=C(NC1(C(F)(F)F)C(=O)Nc2c1c(=O)[nH]c(=O)n2Cc1ccccc1)c1ccc(Cl)cc1` (centres undefined), for which the z-score is -0.0254.
With `O=C(O/N=C\c1ccc(N2CCCCC2)c([N+](=O)[O-])c1)c1c(F)cccc1F` the figure was 2.03.
With `CCOc1ccc(C(=O)N2CCc3cc(OC)c(OC)cc3C2)cc1OCC` the figure was -1.52; with `CC(NC(=O)COc1ccccc1)C(=O)OCC(=O)c1cc2ccccc2o1` (centres undefined), -0.987; with `Cc1noc(NS(=O)(=O)c2ccc(NC(=O)c3cnc4n(c3=O)CCS4)cc2)c1C`, -0.25.
With `O=C(NCCCN1CCOCC1)c1ccc(Br)cc1`, the z-score is -0.626.
With `COC(=O)C1CCN(C(=O)N2CCOCC2)CC1` the figure was 0.0127; with `CCC(C)Nc1nc(-c2cccc(OC)c2O)nc2ccccc12` (centres undefined), -1.44.
Turning to `CN1CCN(c2oc(COc3ccc(-c4ccccc4)cc3)nc2C#N)CC1`, the z-score was found to be 0.843.
On to `Cn1c(SCC(=O)Nc2nccs2)nnc1C12CC3CC(CC(C3)C1)C2`, for which the z-score is -0.308.
For the molecule `Fc1cccc(Cl)c1CNC(c1ccccc1)c1ccccc1`, the z-score is -0.0753.
With `CCOC(=O)C[n+]1c(C)sc2ccc(OC)cc21` the figure was -0.52; with `CCC(C)c1ccc(NC(=S)Nc2ccc(OC)cc2C)cc1` (centres undefined), 0.0172; with `Cn1cnnc1SCC(=O)c1cc2ccccc2oc1=O`, -0.329.
As to `COC(=O)C1=C(C(=O)c2ccc(C)cc2)C(c2ccc(O)c(OC)c2)n2nnnc2N1` (centres undefined), the z-score was -0.252.
For `CC(C)(C)NC(=O)c1sccc1C(=O)O`, the z-score came out at 0.115.
With `Cc1c(Cc2ccccc2)c(=O)oc2c(C)c(OCc3nn[nH]n3)ccc12` the figure was -0.174.
In the case of `O=C(/C=C/c1ccc2c(c1)OCCCO2)c1ccccc1O`, the z-score came to 0.562.
In turn, `O=c1c2c3c(sc2nc2n1N=C(c1cccs1)CS2)CCCC3` registered a z-score of 0.522.
With `O=C1CC(N2CCN(c3ccccn3)CC2)C(=O)N1CC(c1ccccc1)c1ccccc1` (centres undefined) the figure was -0.182; with `COc1ccccc1NC1=NC(C)(C)N=C(N)N1`, -0.029; with `Cc1sc2nc(N)sc2c1C`, 0.431.
For the molecule `Cc1nnc(SCC(=O)Nc2ncc3c(n2)CC(c2ccccc2)CC3=O)s1` (centres undefined), the z-score is -0.241.
With `O=C(COC(=O)c1cncc(Br)c1)NCCC1=CCCCC1`, the z-score was -0.212.
With `COc1cccc(S(=O)(=O)N2CCOCC2)c1` the figure was 0.363.
With `CC(C)c1cc(C(=O)O)n[nH]1` the figure was 0.159.
Take `Cc1cccn2c(=O)c(/C=C(\C#N)C(=O)NCc3ccco3)c(N3CCCCC3)nc12`: the z-score is -0.532.
With `CCOC(=O)CCC(=O)N1CCOCCOCCOCC1` the figure was -0.0418; with `Cc1cccc2cc(COC(=O)COc3ccccc3)c(=O)[nH]c12`, 0.558; with `COCCNC(=O)c1cc(-c2ccccc2OC)on1`, 0.615.
With `COC(=O)Cc1[nH]n(-c2nc3ccccc3s2)c(=O)c1C(C)=O` the figure was 0.0239; with `O=S(=O)(Nc1ccc(N=Nc2ccc(O)c3ccccc23)cc1)c1ccccc1`, 0.0802.
With `CN1CCN(CC(O)COc2ccc(Cl)cc2)CC1` (centres undefined) the figure was -0.061; with `COc1ccc(NC(=S)c2ccncc2)cc1`, -0.313.
Regarding `COc1cc(/C=C(/C#N)c2ccc(F)cc2)ccc1Oc1ccc([N+](=O)[O-])cn1`, the z-score is -0.405.
Consider `COc1ccc(S(=O)(=O)N(C)C)cc1NCC(=O)Nc1ccc(Br)cc1F`, for which the z-score is -0.135.
In the case of `Cc1noc(C)c1S(=O)(=O)N1CCC(C(=O)NCCC2=CCCCC2)CC1`, the z-score was -0.21.
With `COc1ccc(C(=O)CCNc2cccc(Cl)c2)cc1` the figure was 0.477.
With `CC(c1ccco1)N(C(=O)c1ccccc1NS(=O)(=O)c1cc([N+](=O)[O-])ccc1Cl)c1ccccn1` (centres undefined) the figure was 2.18; with `CCN(CC)c1ccc(N2C(=O)C3CCCCC3C2=O)cc1[N+](=O)[O-]` (centres undefined), -0.215; with `O=C1C2CC=CCC2C(=O)N1CNc1ccccc1` (centres undefined), 0.0347.
